The list shows a part of the results.
Tested on: HSkMC (human skeletal muscle cells)
Experiment: cytotoxicity call (relative viability < 0.9)
Settings: 10 µM

**Q.** With `C[C@@H]1CCCCO[C@H](CN(C)Cc2ccncc2)[C@@H](C)CN([C@H](C)CO)C(=O)c2cc(NC(=O)c3ccccc3)ccc2O1` as the molecule, how does the cytotoxicity call read?
**A.** The cytotoxicity call was “inactive”.

**Q.** `CC(C)C(=O)Nc1cccc(Cl)c1` was tested. Which cytotoxicity call did it give?
**A.** Its cytotoxicity call is “inactive”.

**Q.** `COC[C@H]1CN(C(=O)c2ccccn2)N1` was tested. Which cytotoxicity call did it give?
**A.** Its cytotoxicity call is “inactive”.

**Q.** How did the cytotoxicity call turn out when `C[C@@H]1CN([C@@H](C)CO)C(=O)c2cc(NS(=O)(=O)c3ccc(Cl)cc3)ccc2O[C@@H](C)CCCCO[C@H]1CN(C)CC1CC1` was run?
**A.** The cytotoxicity call was “inactive”.

**Q.** Which cytotoxicity call does the source give for `C[C@H]1CN([C@@H](C)CO)C(=O)c2cc(NC(=O)Cn3cnnn3)ccc2O[C@H]1CN(C)S(=O)(=O)c1cn(C)cn1` here?
**A.** Its cytotoxicity call is “inactive”.

**Q.** How did the cytotoxicity call turn out when `CS(=O)(=O)N1C[C@H]2C[C@@H](F)[C@H](O)[C@@H]2C1` was run?
**A.** Its cytotoxicity call is “inactive”.

**Q.** With `C[C@@H]1CCCCO[C@H](CN(C)C(=O)Nc2ccccc2)[C@H](C)CN([C@@H](C)CO)C(=O)c2cc(NC(=O)Nc3ccc(F)cc3)ccc2O1` as the molecule, how does the cytotoxicity call read?
**A.** The cytotoxicity call was “inactive”.

**Q.** For `O=C(O[C@H](Cc1ccc(O)c(O)c1)C(=O)O)[C@H]1[C@H](C(=O)O[C@@H](Cc2ccc(O)c(O)c2)C(=O)O)[C@H](c2ccc(O)c(O)c2)[C@@H]1c1ccc(O)c(O)c1`, which cytotoxicity call is on record?
**A.** The cytotoxicity call was “inactive”.

**Q.** For `COc1ccc(NC(=O)N(C)C[C@H]2Oc3ccc(NC(=O)CCCCCC(=O)Nc4ccccc4N)cc3CC(=O)N([C@@H](C)CO)C[C@@H]2C)cc1`, which cytotoxicity call is on record?
**A.** Its cytotoxicity call is “inactive”.

**Q.** Which cytotoxicity call does the source give for `C[C@@H]1CN([C@H](C)CO)C(=O)c2cccc(NC(=O)Nc3cccc4ccccc34)c2O[C@@H]1CN(C)Cc1ccncc1` here?
**A.** The cytotoxicity call was “inactive”.

**Q.** With `C[C@H](CO)N1C[C@H](C)[C@H](CN(C)C(=O)Nc2cccc3ccccc23)Oc2ncc(-c3ccc(F)cc3)cc2C1=O` as the molecule, how does the cytotoxicity call read?
**A.** Its cytotoxicity call is “inactive”.

**Q.** How did the cytotoxicity call turn out when `CO[C@H]1CN(C)C(=O)c2cc(NS(=O)(=O)c3cn(C)cn3)ccc2OC[C@@H](C)N(CCC(F)(F)F)C[C@@H]1C` was run?
**A.** The cytotoxicity call was “inactive”.

**Q.** For `C[C@@H]1CN([C@@H](C)CO)C(=O)Cc2cc(NS(=O)(=O)c3ccc(F)cc3)ccc2O[C@@H]1CN(C)Cc1ccc(Cl)c(Cl)c1`, which cytotoxicity call is on record?
**A.** Its cytotoxicity call is “active”.

**Q.** How did the cytotoxicity call turn out when `C[C@@H]1CCCCO[C@@H](CN(C)Cc2ccc(C(=O)O)cc2)[C@@H](C)CN([C@@H](C)CO)C(=O)c2cc(NC(=O)Nc3ccc4c(c3)OCO4)ccc2O1` was run?
**A.** Its cytotoxicity call is “inactive”.

**Q.** Which cytotoxicity call does the source give for `C[C@H]1CN([C@@H](C)CO)C(=O)c2cc(/C=C/c3ccccc3)cnc2O[C@H]1CN(C)C(=O)Nc1ccc(C(F)(F)F)cc1` here?
**A.** The cytotoxicity call was “inactive”.

**Q.** Which cytotoxicity call does the source give for `Cc1cccc(S(=O)(=O)N2C[C@@H](O)COC[C@@H]3O[C@@H](CC(=O)NCc4ccncn4)CC[C@H]32)c1` here?
**A.** The cytotoxicity call was “inactive”.

**Q.** How did the cytotoxicity call turn out when `NC(=O)C[n+]1cccc2ccccc21` was run?
**A.** Its cytotoxicity call is “inactive”.

**Q.** Which cytotoxicity call does the source give for `Cc1noc(C)c1NC(=O)Nc1ccc2c(c1)C(=O)N([C@H](C)CO)C[C@H](C)[C@H](CN(C)C(=O)Nc1ccccc1)OCCCC[C@H](C)O2` here?
**A.** Its cytotoxicity call is “inactive”.

**Q.** How did the cytotoxicity call turn out when `COc1cccc(S(=O)(=O)N(C)C[C@@H]2Oc3cc(C#CCN(C)C)ccc3S(=O)(=O)N([C@H](C)CO)C[C@@H]2C)c1` was run?
**A.** Its cytotoxicity call is “inactive”.

**Q.** `C[C@H]1CN([C@@H](C)CO)S(=O)(=O)c2ccc(C#CCN(C)C)cc2O[C@@H]1CN(C)S(=O)(=O)c1cccc(F)c1` was tested. Which cytotoxicity call did it give?
**A.** The cytotoxicity call was “inactive”.

**Q.** Which cytotoxicity call does the source give for `C[C@@H]1CN([C@H](C)CO)C(=O)c2cccc(NC(=O)Nc3ccc(C(F)(F)F)cc3)c2O[C@H]1CN(C)C(=O)Nc1ccc2c(c1)OCO2` here?
**A.** The cytotoxicity call was “inactive”.

**Q.** Which cytotoxicity call does the source give for `O=C(NO)c1cccc(C(=O)N/N=C/[C@H](O)[C@@H](O)[C@@H](O)[C@H](O)CO)c1` here?
**A.** The cytotoxicity call was “inactive”.

**Q.** `C[C@@H]1CN([C@H](C)CO)S(=O)(=O)c2ccc(C#CCN(C)C)cc2O[C@H]1CN(C)Cc1ccc(F)cc1` was tested. Which cytotoxicity call did it give?
**A.** The cytotoxicity call was “inactive”.

**Q.** For `COc1ccc(-c2cc(=O)c3c(OC)c(OC)c(OC)c(OC)c3o2)cc1OC`, which cytotoxicity call is on record?
**A.** Its cytotoxicity call is “inactive”.

**Q.** With `Cn1c(Nc2ccc(C(F)(F)F)cc2)nc2cc(Oc3ccnc(-c4ncc(C(F)(F)F)[nH]4)c3)ccc21` as the molecule, how does the cytotoxicity call read?
**A.** Its cytotoxicity call is “active”.

**Q.** Which cytotoxicity call does the source give for `C[C@H](CO)N1C[C@H](C)[C@H](CN(C)Cc2ccc(Cl)c(Cl)c2)OCCCC[C@H](C)Oc2ccc(NC(=O)Nc3ccc(F)cc3)cc2C1=O` here?
**A.** Its cytotoxicity call is “inactive”.

**Q.** How did the cytotoxicity call turn out when `FC(F)(F)COCC(F)(F)F` was run?
**A.** Its cytotoxicity call is “inactive”.

**Q.** For `C[C@@H]1CCCCO[C@@H](CN(C)C)[C@H](C)CN([C@H](C)CO)C(=O)c2cc(NC(=O)CCCCCC(=O)Nc3ccccc3N)ccc2O1`, which cytotoxicity call is on record?
**A.** The cytotoxicity call was “inactive”.

**Q.** For `C[C@@H]1CN([C@H](C)CO)C(=O)c2cc(NS(=O)(=O)c3ccc(F)cc3)ccc2O[C@@H](C)CCCCO[C@@H]1CN(C)C(=O)c1ccccc1`, which cytotoxicity call is on record?
**A.** The cytotoxicity call was “inactive”.
